Several values for one entry are separate records, joined by “and”; a condition that tells them apart may be missing. Equal values may be shown once. Inconclusive results, whose numbers are uncertain, are shown with a selection of clear calls. A potency beside an inconclusive call is a rough fit, not a confirmed value. Activity calls are given as the source filed them. The call rests on the fitted dose curve; in most records, active means well fitted curve in the direction sought with a large enough effect; inconclusive means small, poorly fitted or top-dose-only effect, or another doubt; inactive means no such curve, though single readings can be large; an effect the other way counts as inactive or inconclusive.
Experiments:
[1] = qHTS of pediatric cancer cell lines to identify multiple opportunities for drug repurposing: Primary screen for BT-37 cells (AID 1347094)
How it was run: (§1)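 Readout: CellTiter-Glo luminescence, 48 h treatment. Controls DMSO (neutral) and bortezomib 2.3 µM final (positive). Potency and efficacy taken from primary-screen concentration-response curves.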

[2] = qHTS of pediatric cancer cell lines to identify multiple opportunities for drug repurposing: Primary screen for Saos-2 cells (AID 1347097); details: Saos-2 viability, CellTiter-Glo ATP luminescence, 48 h; activity change, negative = cytotoxic: at 46 µM (top of the series) unless noted; further: nearly all actives have a fitted effect of over 40% in size
How it was run: as §1

[3] = qHTS of pediatric cancer cell lines to identify multiple opportunities for drug repurposing: Primary screen for SK-N-SH cells (AID 1347098); details: SK-N-SH viability, CellTiter-Glo luminescence, 48 h; activity change, negative = cytotoxic: at 57 µM (top of the series) unless noted; further: nearly all actives have a fitted effect of over 65% in size
How it was run: (§2)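 Cells (500-1,000/well) rested 5 h, then received compounds for 48 h; metabolically active cells were measured by CellTiter-Glo luminescence. Final concentrations spanned up to 46 µM (MIPE, 11-point) or 0.59 nM-46 µM (NPC, 8-point) in primary screens, 11-point in follow-ups.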

[4] = qHTS of pediatric cancer cell lines to identify multiple opportunities for drug repurposing: Primary screen for BT-12 cells (AID 1347101); further: nearly all actives have a fitted effect of over 25% in size
How it was run: as §2

[5] = qHTS of pediatric cancer cell lines to identify multiple opportunities for drug repurposing: Primary screen for Rh18 cells (AID 1347102); further: nearly all actives have a fitted effect of over 65% in size
How it was run: as §2

[6] = qHTS of pediatric cancer cell lines to identify multiple opportunities for drug repurposing: Primary screen for U-2 OS cells (AID 1347096); further: nearly all actives have a fitted effect of over 50% in size
How it was run: as §2

[7] = qHTS of pediatric cancer cell lines to identify multiple opportunities for drug repurposing: Primary screen for NB1643 cells (AID 1347099); further: nearly all actives have a fitted effect of over 50% in size
How it was run: as §1

[8] = qHTS of pediatric cancer cell lines to identify multiple opportunities for drug repurposing: Primary screen for LAN-5 cells (AID 1347100); details: LAN-5 neuroblastoma viability, CellTiter-Glo luminescence, 48 h; activity change, negative = cytotoxic: at 46 µM (top of the series) unless noted
How it was run: as §2

[9] = qHTS of pediatric cancer cell lines to identify multiple opportunities for drug repurposing: Primary screen for NB-EBc1 cells (AID 1347095)
How it was run: as §1
Potency means the concentration at half of the fitted maximal effect; tags describe the fitted curve by direction and shape.

## CCNC(=O)CC1N=C(c2ccc(Cl)cc2)c2cc(OC)ccc2-n2c(C)nnc21 (stereo unspecified)
[1]
  Potency: inconclusive: 24.3 µM [cytotoxic, partial curve]
[2]
  Potency: inconclusive: 16.6 µM [cytotoxic, partial curve]
[3]
  Potency: active: 15.2 µM
[4]
  Potency: inconclusive: 19.3 µM [cytotoxic, partial curve]
[5]
  Potency: inconclusive: 16.6 µM [cytotoxic, partial curve]

## COc1ccc2c(c[n+](C)c3c4cc5c(cc4ccc23)OCO5)c1OC
[1]
  Potency: active: 17.2 µM
[6]
  Potency: inconclusive: 29.6 µM [cytotoxic, single point]
[2]
  Potency: active: 9.35 µM
[3]
  Potency: active: 12.1 µM
[7]
  Potency: active: 7.43 µM

## COc1ccc(N(C(=O)Oc2c(C)cccc2C)c2ccnc(Nc3ccc(N4CCN(C)CC4)cc3)n2)c(OC)c1
[1]
  Potency: active: 15.3 µM
[2]
  Potency: inconclusive: 14.8 µM [cytotoxic, partial curve]
[3]
  Potency: active: 0.242 µM
[7]
  Potency: inconclusive: 0.935 µM [cytotoxic, partial curve, poor fit]
[4]
  Potency: inconclusive: 0.153 µM [cytotoxic, full curve]

## CCOC(=O)C1(c2ccccc2)CCN(CCC(C#N)(c2ccccc2)c2ccccc2)CC1
[1]
  Potency: inconclusive: 13.8 µM [cytotoxic, partial curve]
[2]
  Potency: inconclusive: 15 µM [cytotoxic, partial curve]
[7]
  Potency: inconclusive: 8.41 µM [cytotoxic, partial curve]
[8]
  Potency: inconclusive: 33.5 µM [cytotoxic, single point]
[5]
  Potency: inconclusive: 21.1 µM [cytotoxic, partial curve]

## CN1C[C@@H](NS(=O)(=O)N(C)C)C[C@@H]2c3cccc4c3c(cn4C)C[C@H]21
[1]
  Potency: inactive
[2]
  Potency: inactive

## O=C1c2ccccc2C(=O)c2ccccc21
[1]
  Potency: inactive
[2]
  Potency: inactive
[8]
  Potency: inactive
[5]
  Potency: inactive

## COc1ccc2c3c1O[C@H]1[C@H](O)CC[C@H]4[C@@H](C2)N(C)CC[C@@]341
[1]
  Potency: inactive
[3]
  Potency: inactive

## O=C1NCN(c2ccccc2)C12CCN(CCCOc1ccc(F)cc1)CC2
[1]
  Potency: active: 17.4 µM
[2]
  Potency: inconclusive: 21.1 µM [cytotoxic, partial curve]
[3]
  Potency: inconclusive: 0.344 µM [cytotoxic, full curve, poor fit]
[7]
  Potency: inactive
[4]
  Potency: active: 11 µM
[5]
  Potency: inconclusive: 29.9 µM [cytotoxic, single point]

## CCCN1CCC[C@@H]2Cc3[nH]ncc3C[C@H]21
[1]
  Potency: inactive
[2]
  Potency: inconclusive: 29.9 µM [cytotoxic, single point]
[5]
  Potency: inactive

## O=C(N[C@H]1CN2CCC1CC2)c1ccc(Cl)cc1
[1]
  Potency: inconclusive: 43.2 µM [cytotoxic, single point]
[2]
  Potency: inconclusive: 16.6 µM [cytotoxic, partial curve]
[5]
  Potency: inconclusive: 33.2 µM [cytotoxic, single point]

## Cc1ccccc1-n1c(Cn2cnc3c(N)ncnc32)nc2cccc(C)c2c1=O
[1]
  Potency: active: 3.85 µM
[6]
  Potency: active: 14.8 µM
[3]
  Potency: active: 8.57 µM
[8]
  Potency: active: 0.264 µM

## CC(=Cc1csc(C)n1)[C@@H]1C[C@H]2O[C@]2(C)CCC[C@H](C)[C@@H](O)[C@@H](C)C(=O)C(C)(C)[C@@H](O)CC(=O)O1
[1]
  Potency: inconclusive: 0.432 µM [cytotoxic, full curve]
[8]
  Potency: active: 0.001 µM

## CCNc1nc(Cl)nc(NCC)n1
[9]
  Potency: inactive
[6]
  Potency: inactive
[2]
  Potency: inconclusive: 9.44 µM [cytotoxic, partial curve, poor fit]

## Cc1c(Cl)c(=O)oc2cc(OP(=O)(OCCCl)OCCCl)ccc12
[9]
  Potency: inactive
[6]
  Potency: inactive
[2]
  Potency: inactive

## CCCOC(=O)c1cncn1C(C)c1ccccc1 (stereo unspecified)
[9]
  Potency: inactive

## c1cc2c(c(N3CCNCC3)c1)OCCO2
[1]
  Potency: inactive
[7]
  Potency: inactive

## COC(C)(C)CCCC(C)C/C=C/C(C)=C/C(=O)OC(C)C (stereo unspecified)
[9]
  Potency: inactive

## CN(C)[C@@H]1C(=O)C(C(N)=O)=C(O)[C@@]2(O)C(=O)C3=C(O)c4c(O)cccc4[C@@](C)(O)[C@H]3C[C@@H]12
[1]
  Potency: inconclusive: 34.7 µM [cytotoxic, single point] and inconclusive: 27.3 µM [cytotoxic, partial curve, poor fit]
[3]
  Potency: inactive
[4]
  Potency: inconclusive: 21.9 µM [cytotoxic, single point] and inconclusive: 21.7 µM [cytotoxic, partial curve, poor fit]
[5]
  Potency: inactive

## ClCCCN1CCN(c2cccc(Cl)c2)CC1
[1]
  Potency: inactive
[7]
  Potency: inconclusive: 0.0299 µM [cytotoxic, partial curve, poor fit]

## CCOC(=O)c1cncn1C(C)c1ccccc1 (stereo unspecified)
[9]
  Potency: inactive
[6]
  Potency: inactive

## CCc1ccc(C2CCNCC2)cc1
[1]
  Potency: inactive
[7]
  Potency: inactive

## CCC(CC)(CNC(=O)CCCO)c1cccc(OC)c1
[1]
  Potency: inactive
[7]
  Potency: inactive

## COc1cc(CC#N)cc(OC)c1OC
[1]
  Potency: inactive
[3]
  Potency: inactive

## CC(NC(C)(C)C)C(=O)c1cccc(Cl)c1 (stereo unspecified)
[9]
  Potency: inactive

## O=C(Nc1ccccc1-c1ccc(Cl)cc1)c1cccnc1Cl
[9]
  Potency: inconclusive: 61.1 µM [cytotoxic, partial curve, poor fit]

## C[C@H]1O[C@@H](O[C@H]2[C@@H](O)C[C@H](O[C@H]3[C@@H](O)C[C@H](O[C@H]4CC[C@@]5(C)[C@H](CC[C@@H]6[C@@H]5CC[C@]5(C)[C@@H](C7=CC(=O)OC7)CC[C@]65O)C4)O[C@@H]3C)O[C@@H]2C)C[C@H](O)[C@@H]1O
[9]
  Potency: inconclusive: 0.168 µM [cytotoxic, full curve, poor fit]
[6]
  Potency: inconclusive: 0.0335 µM [cytotoxic, full curve]
[2]
  Potency: inconclusive: 0.0106 µM [cytotoxic, full curve]
[8]
  Potency: active: 0.0473 µM
[4]
  Potency: active: 0.0219 µM
[5]
  Potency: inconclusive: 0.0119 µM [cytotoxic, full curve]

## COC1CC(=C(c2cccs2)c2cccs2)C[N+](C)(C)C1 (stereo unspecified)
[1]
  Potency: inactive
[7]
  Potency: inactive

## O=[N+]([O-])c1cc([N+](=O)[O-])c2ccccc2c1
[9]
  Potency: inconclusive: 3.44 µM [cytotoxic, partial curve]

## CC(=O)O[C@@]12CO[C@H]1C[C@H](O)[C@@]1(C)C(=O)[C@H](O)C3=C(C)[C@@H](O)C[C@@](O)([C@@H](OC(=O)c4ccccc4)[C@@H]21)C3(C)C
[1]
  Potency: inconclusive: 6.85 µM [cytotoxic, full curve]
[3]
  Potency: inconclusive: 19.2 µM [cytotoxic, partial curve, poor fit]
[7]
  Potency: inactive
[4]
  Potency: inconclusive: 4.32 µM [cytotoxic, full curve]

## CNC(=O)NC(O)C(Cl)(Cl)Cl (stereo unspecified)
[1]
  Potency: inactive
[8]
  Potency: inactive

## Oc1cccc2cccnc12
[1]
  Potency: inconclusive: 50.2 µM [cytotoxic, single point]
[5]
  Potency: inconclusive: 38.6 µM [cytotoxic, single point]

## O=C1C(I)=CC(=C(c2cc(I)c(O)c(I)c2)c2ccccc2C(=O)O)C=C1I
[1]
  Potency: inactive
[7]
  Potency: inconclusive: 23.7 µM [cytotoxic, partial curve]

## CC(=Cc1csc(C)n1)[C@@H]1C[C@H]2O[C@@H]2CCC[C@H](C)[C@@H](O)[C@@H](C)C(=O)C(C)(C)[C@@H](O)CC(=O)O1
[1]
  Potency: inconclusive: 0.001 µM [cytotoxic, full curve]
[7]
  Potency: inconclusive: 0.0009 µM [cytotoxic]
[4]
  Potency: inconclusive: 0.001 µM [cytotoxic, full curve]

## Cc1cccc(C)c1NC1=NCCCS1
[1]
  Potency: inactive
[7]
  Potency: inconclusive: 33.5 µM [cytotoxic, single point]
[8]
  Potency: inactive

## O=C(Oc1ccc([N+](=O)[O-])cc1)N1CCC(C(O)(c2ccc3c(c2)OCO3)c2ccc3c(c2)OCO3)CC1
[1]
  Potency: inconclusive: 43.2 µM [cytotoxic, partial curve, poor fit]
[7]
  Potency: inconclusive: 29.6 µM [cytotoxic, single point]
[8]
  Potency: inactive
[5]
  Potency: inconclusive: 29.6 µM [cytotoxic, partial curve, poor fit]

## S=C(SSC(=S)N1CCCCC1)N1CCCCC1
[9]
  Potency: inconclusive: 26.6 µM [cytotoxic, single point]
[6]
  Potency: inconclusive: 0.106 µM [cytotoxic, full curve, poor fit]
[2]
  Potency: active: 0.0376 µM
[3]
  Potency: inconclusive: 0.109 µM [cytotoxic, full curve]

## CC(C)(O)C(=O)Nc1ccc([N+](=O)[O-])c(C(F)(F)F)c1
[1]
  Potency: inconclusive: 4.85 µM [cytotoxic, partial curve]
[8]
  Potency: inconclusive: 16.6 µM [cytotoxic, partial curve]
[4]
  Potency: inconclusive: 24.3 µM [cytotoxic, partial curve]

## CN(C)CCc1ccc(O)cc1
[1]
  Potency: inactive
[8]
  Potency: inactive

## CCN(CC)CCOC(=O)C(O)(c1ccccc1)c1ccccc1
[9]
  Potency: inactive

## Cc1ncc2n1-c1ccc(Cl)cc1C(c1ccccc1F)=NC2
[1]
  Potency: inconclusive: 24.6 µM [cytotoxic, partial curve, poor fit]
[8]
  Potency: inconclusive: 29.9 µM [cytotoxic, single point]

## Nc1c(Cl)c(Cl)c(Cl)c(Cl)c1Cl
[1]
  Potency: inactive
[5]
  Potency: inactive

## C=C(C)[C@H]1Cc2c(ccc3c2O[C@@H]2COc4cc(OC)c(OC)cc4[C@@H]2C3=O)O1
[9]
  Potency: active: 3.35 µM and active: 2.64 µM
[6]
  Potency: inconclusive: 5.31 µM [cytotoxic, partial curve] and inconclusive: 5.9 µM [cytotoxic, partial curve, poor fit]
[2]
  Potency: inconclusive: 0.935 µM [cytotoxic, full curve]
[3]
  Potency: inconclusive: 68.7 nM [cytotoxic, full curve, poor fit] and inconclusive: 1.08 µM [cytotoxic, full curve]
[7]
  Potency: inconclusive: 237 nM [cytotoxic, full curve] and inconclusive: 1.66 µM [cytotoxic, full curve]
[5]
  Potency: inconclusive: 335 nM [cytotoxic, full curve] and inconclusive: 2.64 µM [cytotoxic, full curve]

Reference: PubChem BioAssay (NCATS)
